Measurements: paper PMC6919601, “Identification of Plasmodium dipeptidyl aminopeptidase allosteric inhibitors by high throughput screening” (PLoS ONE, 2019)
Among all 110,000 compounds or so, about 230 (0.21%) showed an effect of 50% or more. This is one part of the list.

target: DPAP1 (Plasmodium falciparum, UniProt Q8IIJ9); assay: primary screen, percent inhibition; read by cleavage of a fluorogenic dipeptide substrate; higher = more effect of the substance; parameters: species or system P. falciparum D10 trophozoite lysates; single well
Sequence (Q8IIJ9 whole entry, looked up): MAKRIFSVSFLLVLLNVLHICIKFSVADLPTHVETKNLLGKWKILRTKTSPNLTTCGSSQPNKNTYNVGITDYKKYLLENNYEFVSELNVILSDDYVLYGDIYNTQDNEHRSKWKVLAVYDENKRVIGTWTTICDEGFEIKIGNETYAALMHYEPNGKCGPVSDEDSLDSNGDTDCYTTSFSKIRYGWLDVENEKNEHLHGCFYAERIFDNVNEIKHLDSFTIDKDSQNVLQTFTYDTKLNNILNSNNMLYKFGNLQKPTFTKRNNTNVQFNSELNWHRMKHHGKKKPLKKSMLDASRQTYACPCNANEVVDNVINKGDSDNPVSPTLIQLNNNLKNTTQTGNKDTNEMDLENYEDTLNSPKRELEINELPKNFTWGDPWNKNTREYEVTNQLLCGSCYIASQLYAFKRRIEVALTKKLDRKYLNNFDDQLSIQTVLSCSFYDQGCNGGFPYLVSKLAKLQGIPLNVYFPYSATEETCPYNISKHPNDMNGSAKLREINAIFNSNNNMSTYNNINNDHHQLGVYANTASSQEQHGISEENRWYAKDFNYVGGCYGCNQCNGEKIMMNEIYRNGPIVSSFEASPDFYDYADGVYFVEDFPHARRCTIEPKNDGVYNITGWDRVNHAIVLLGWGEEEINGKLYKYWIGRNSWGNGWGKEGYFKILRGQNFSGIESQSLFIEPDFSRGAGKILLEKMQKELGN
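Also: 30 min substrate incubation versus DMSO and 10 µM JCP410 controls.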

Structure (SMILES) | % Inhibition @ 10 uM [%]
CCC(Oc1ccccc1)C(=O)NCCc1ccc(S(N)(=O)=O)cc1 (centres unmarked) | 0.161
CC1CCCC(NC(=O)Cn2nc(-c3ccccc3)ccc2=O)C1C (centres unmarked) | 3.79
CCOc1ccc2oc(=O)cc(CN3CCN(C4CCCCC4)CC3)c2c1 | 0.00706
Cc1cc(C)n(-c2ccc3cccc(N)c3n2)n1 | 1.57
CCN1CCN(C(=O)c2cnn(-c3ccccc3Cl)c2NC(=O)c2ccco2)CC1 | -4.86
CCCc1nnc2nc(O)cc(C)n12 | -5.33
CC1CCN(S(=O)(=O)c2ccc(Cl)c(Cl)c2)CC1 | -0.414
CS(=O)(=O)n1cnc2ccccc21 | -2.99
CC1=CC(C)C2C(=O)N(c3ccccc3)C(=O)C2C1 (centres unmarked) | 5.37
O=C(NCCN1CCCCCC1)C1CCC(CNS(=O)(=O)c2cccc3nsnc23)CC1 (centres unmarked) | -0.465
C1=C(c2cccnc2)Nc2ncnn2C1c1cccs1 (centres unmarked) | -3.21
Cc1ccc(CC(=O)Nc2nnc(CC(C)C)s2)cc1 | -1.17
CC[C@H](NC(=O)[C@H](CN(C)c1ccccc1)NC(=O)c1ccc(-c2ccccc2Cl)cc1)C(=O)c1nc2ccccc2o1 | -6.98
CN(C)S(=O)(=O)n1cc(/C=C(\NC(=O)c2ccccc2)C(=O)NCc2ccco2)c2ccccc21 | -0.0235
Oc1oc2ccccc2c2nc(-c3ccccc3)nc1-2 | 2.47
OCCN1CCN(c2ncnc3c2c(-c2ccccc2)cn3-c2ccc(F)cc2)CC1 | -0.928
Cc1ccc(NC(=O)CN2C(=O)S/C(=C\c3cccc(Cl)c3)C2=O)cc1 | -6.24
Cc1nn(CC(=O)N2CCN(C)CC2)c(=O)c2cccn12 | -10.8
COc1ccccc1C(=O)Nc1cc(Cl)ccc1C(F)(F)F | 3.67
FC(F)(F)c1cccc(N2CCN(Cc3ccc(Cl)cc3Cl)CC2)c1 | -3.65
Cc1ccc(NC(=O)CN2C(=O)c3ccccc3S2(=O)=O)cc1 | 1.03
CCCNC(=O)CN(Cc1ccccc1C)S(=O)(=O)c1ccc(Cl)cc1 | -1.95
Cc1ccc(CC/N=c2/c(-c3ccccc3)c(O)c2=O)cc1 | 0.867
COc1ccc(CCNC(=O)CCNS(=O)(=O)c2cccc3nonc23)cc1OC | -2.04
Cc1ccccc1S(=O)Cc1ccc(C(=O)NC2CC2)o1 (centres unmarked) | -3.61
O=C(CSc1nc2ccccc2c(=O)n1-c1ccccc1)NCCCN1CCOCC1 | -10.8

Structure (SMILES) | % Inhibition @ 10 uM [%]
Cc1ccc(C(=O)NCc2ccncc2)c(Cl)c1 | -0.473
CS(=O)(=O)N(CC(=O)NCc1ccccc1Cl)c1ccc(Cl)cc1 | -0.231
N#CC1=C(N)Oc2cc(O)ccc2C1c1ccc(OCc2ccccc2Cl)cc1 (centres unmarked) | -1.17
O=C(CC(c1ccccc1)c1ccccc1O)N1CCOCC1 (centres unmarked) | 0.47
N#Cc1c(NC(=O)c2ccc(C(=O)O)cc2C(=O)O)sc2c1CCCC2 | 2.95
Cc1nn(CCCC(=O)N2CCOCC2)c(=O)c2c1sc1ccccc12 | -1.97
O=C(Cn1cnc2c(nnn2Cc2ccccc2F)c1=O)NCc1ccccc1 | -0.431
O=C(c1ccco1)n1nc(-c2ccc(Cl)cc2)nc1NCc1ccco1 | 2.31
COCCNC(=O)CSc1nc2ccccc2c(=O)n1-c1ccccc1 | -1.27
O=C(COc1ccc(Cl)cc1)NC12CC3CC(CC(C3)C1)C2 | -1.96
Cc1ccc(CNC(=O)c2cc(S(=O)(=O)N3CCOCC3)cn2C)o1 | -6.98
O=C1CCN(Cc2ccccc2)C(=O)N1 | 2.09
CCc1cc2cccnc2n1S(=O)(=O)c1ccccc1 | -5.11
C=CCOc1ccc(CNc2nccs2)cc1 | -11.5
CCOc1ccc2nc(NC(=O)C(NS(=O)(=O)c3cccs3)C(C)C)sc2c1 (centres unmarked) | -11.7
O=C(O)C1C(C(=O)Nc2ccccc2F)C2C=CC1C21CC1 (centres unmarked) | 2.92
O=C(CN(Cc1ccccc1)S(=O)(=O)c1ccccc1)Nc1ccccc1C(F)(F)F | -2.63
N#Cc1ccc(-c2ccc(COCCCC(O)CO)cc2)cc1 (centres unmarked) | 1.03
Cc1c(NC(=O)NC2CCCCC2C)sc2nc3n(c(=O)c12)CCC(C)CC3 (centres unmarked) | 1.68
CC(C)C[C@H](NC(=O)c1ccc(-c2ccc(C#N)s2)cc1)C(=O)NCC#N | 1.71
CC1CCc2c(sc(NC(=O)C3CCCC3)c2C(N)=O)C1 (centres unmarked) | 17.5
O=C1CCCN1c1ccc(S(=O)(=O)N2CCOCC2)cc1 | -8.11
Cc1cc(C)cc(-n2c(C)cc(C=C3C(=O)NC(=O)NC3=O)c2C)c1 | 10.7
COc1ccc(C2=NS(=O)(=O)N(C)C(C(=O)N3CCOCC3)=C2)cc1OC | -8.82
CC(O)C#CCN1C(C)CCCC1C (centres unmarked) | 2.58
O=C(N/C(=C\c1cccnc1)C(=O)N1CCOCC1)c1cccc(Br)c1 | -5.79

Structure (SMILES) | % Inhibition @ 10 uM [%]
COCCO/C(O)=C1\C(C)=NC2=C(C(=O)CC(C)(C)C2)C1c1ccc(Cl)c(Cl)c1 (centres unmarked) | -1.85
CC(C)(C)c1ccc(C(=O)Nc2cccnc2)cc1 | -4.33
Cc1ccc(S(N)(=O)=O)cc1NC(=O)Nc1ccccc1 | 0.727
COc1ccc(NC(=O)C2CCN(C(=O)c3ccccc3C)CC2)cc1OC | -2.29
CCCNC(=O)C(C)Sc1nc2nc(C)cc(C)n2n1 (centres unmarked) | 2.79
COC(=O)c1ccc(C)c(S(=O)(=O)N2CCCCC2)c1 | -3.44
COc1ccc2c(c1)c(/C=C/c1nc3ccccc3c(=O)n1C)c(C)n2C | -3.37
Cc1cc(NC(=O)c2cc(-c3ccccc3F)no2)nn1CC(=O)N1CCCCC1C (centres unmarked) | 0.807
COCCCN1C(=S)NC2c3cc(Br)ccc3OC1(C)C2C (centres unmarked) | -2.1
Cc1cc(C)c(S(=O)(=O)N2CCCC2)cc1S(=O)(=O)N1CCCC1 | 0.827
CCOC(=O)c1c(C)c(-c2ccccc2)n(CC(=O)Nc2cc(C)ccn2)c1C | 0.0579
COc1ccc(-c2occ(C(=O)O)c2C(=O)O)cc1 | 10.8
COc1ccc(-c2c(C)oc3c(CN4CCCCC4C)c(O)ccc3c2=O)cc1OC (centres unmarked) | 5.31
CC1CC(Nc2ccccc2)c2ccccc2N1C(=O)C(C)(C)C (centres unmarked) | -10.5
CS(=O)(=O)N(CC(=O)NC1CC2CCC1C2)c1cccc(F)c1 (centres unmarked) | -8.42
COCCCNC(=O)c1cc2c(=O)n3ccccc3nc2n1C | -1.44
O=Cc1cc(Cl)c2c(c1)OCO2 | 23.6
Cn1nc(C(=O)Nc2cccnc2)c2ccccc2c1=O | 0.628
COc1ccc(Cl)cc1NC(=O)C1C2C=CC(O2)C1C(=O)O (centres unmarked) | -5.46
COc1ccccc1CNC(=O)c1nccnc1CO | -2.88
N#Cc1ccccc1NC(=O)C(c1ccccc1)c1ccccc1 | -3.13
Cc1ccccc1C(=O)Nc1sc2c(c1C(=O)NCc1ccco1)CCC2 | 1.02
COCCC(=O)NC12CC3CC(CC(C3)C1)C2 | 0.526
O=C(COc1ccccc1Cl)Nc1cccc(-c2nc3ncccc3o2)c1 | 10.8
CC(NC(=O)C(=O)NCc1ccc2c(c1)OCO2)C(c1cccs1)N1CCOCC1 (centres unmarked) | -1.08
Oc1ccccc1C1N=C(c2ccccc2)NC(c2ccccc2)=N1 | -4.06

Structure (SMILES) | % Inhibition @ 10 uM [%]
COc1ccc(C[C@@H]2NCC[C@]3(O)CCCC[C@H]23)cc1 | -1.91
Cc1nnc(SCC(=O)N2CCC3(CC2)OCCO3)c2nn(-c3ccccc3)c(C)c12 | 0.535
O=C(COc1ccccc1Cl)NCc1nc(-c2ccccc2)no1 | 3.74
O=C(NCCN1C(=O)C2C3C=CC(C3)C2C1=O)N1CCOCC1 (centres unmarked) | 0.565
CCOc1ccc(/C=C/C(=O)c2ccc(OC)cc2)cc1 | 1.49
CC(C)Oc1ccc(CNC(=O)C2CCCN(c3nnc(-n4cccc4)s3)C2)cc1 (centres unmarked) | -3.34
CCOC(=O)c1c(C)c(C(=O)O)n(C)c1C | 4.63
Cc1ccc(-c2nc(CSCC(=O)NCCN3CCOCC3)c(C)o2)cc1 | 0.689
Cn1c(=O)[nH]c(=O)c2c1nc(N1CCN(C(=O)c3ccco3)CC1)n2CCSc1ncccn1 | 4
Cc1ccc(N2CCN(S(=O)(=O)N3CCCCC3)CC2)cc1C | 0.145
Fc1ccc(/C=C/C2=NN(c3ccc(F)cc3)C(c3ccc(F)cc3)C2)cc1 (centres unmarked) | -5.11
CCOc1ccc2nc3c(cc2c1)c(C)nn3-c1ccccc1 | 5.21
CCOc1ccccc1NC(=O)C1=C(C)NC(=O)NC1c1ccc(OC)cc1OC (centres unmarked) | -0.865
Cc1cc(O)n2nc(-c3ccc(-c4ccccc4)cc3)cc2n1 | -1.85
CC1(C)CC(=O)c2c(-c3ccc([N+](=O)[O-])cc3)coc2C1 | 4.14
COc1ccc(OC)c(CNCc2c(C(=O)O)c(C)n(Cc3ccc(F)cc3)c2C)c1 | -0.23
O=C(c1ccccc1)c1ccc2nc(N3CCOCC3)c3nncn3c2c1 | 4.88
CC(C)OC(=O)c1cccc(Cn2nnc3sc4c(c3c2=O)CCCC4)c1 | 4
CCOCCCNc1ncc2c(n1)CC(c1ccccc1Cl)CC2=O (centres unmarked) | -2.98
Cc1ccc2nc(N3CCCCC3)nc(-c3ccccc3)c2c1 | -5.38
O=C(Nc1ccccc1Cl)c1cccc(C(=O)Nc2ccccc2Cl)c1 | -9
Cc1ccc(NC(=O)CN2C(=O)N/C(=C/c3cccc(Br)c3)C2=O)cc1 | -8.28
O=c1oc2ccc3ccccc3c2cc1-c1nc(-c2ccc([N+](=O)[O-])cc2)cs1 | -2.51
